Results published in the supplement of paper PMC11417369.
This is one part of the list.

system: PfAP2-HC AP2 domain (GST-tagged); assay: gcPBM binding intensity (ln(normalized median fluorescence intensity)); higher = stronger DNA binding
Summary of the method: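 Alexa488 anti-GST antibody, scanned at 488 nm, detected GST-tagged P. falciparum DNA-binding domains that had been expressed in E. coli and incubated for 1 h on an Agilent 4 × 180k array. The array carried primer-extended double-stranded 36-bp intergenic genomic probes and negative controls. Binding intensity is the highest Masliner-normalised natural-log median intensity across replicate spots of either orientation of each probe.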

Row | Sequence | gcPBM binding intensity (ln)
1 | TATACATATTTATACACACACACATATATTTATATA [CACACA_site6727] | 10.3
2 | AAAAAGAAAAAAAACACACACAAATATAAATAAATA [CACACA_site1183] | 10.2
3 | ATATATATATATATATGTACATATTACATTACTTAT [XGTACX_site749] | 9.71
4 | GATAAAATGAGACCAGTGCATTATTAGTTGTACACC | 9.73
5 | TTTTTTGCTAAGTGTACACAAATGTTTATTAATTTA [CACACA_site5859] | 9.58
6 | TTATGTTGTAAATGCACACATACAAATACATATACA [CACACA_site1368] | 9.75
7 | TACAATATAAAATACACACGCACACCGAAAAAAAAA [CACACA_site5865] | 10.3
8 | TTTTCTATATAGTGTTGTACATTATTGTGTAAAAAT [XGTACX_site3223] | 9.69
9 | ATAAAATTGGAGCAAACACACAAGGTTGAAATTAAC [CACACA_site506] | 9.97
10 | ATATTTTATACTTGCACACAAAATATATTAAAATGG [CACACA_site5139] | 9.67
11 | TATATGGTATGTATTACACACATATCACATATATAT [CACACA_site3045] | 10
12 | TGGTAAATTGAGAATCGTACATTAAAAAACATAAAA [XGTACX_site3253] | 9.59
13 | GGAATGGTACATGATACACACACGCACATATAAATA [CACACA_site7581] | 10.1
14 | AAGAAAAAAAAGATAATAATAATAATAATAAAATGA [TGCATGCA_negctrl_site398] | 9.82
15 | ATTTATTAAAAGAAATGTACAGAAAATGTTTGGAAT [XGTACX_site7187] | 9.69
16 | ATTTAATATCACAATATATTTTTTACCCTTATCAGC [CACACA_negctrl_site491] | 9.47
17 | AAAGAATTGTATAAAAGTACATATTTGTTTGTTTTA [XGTACX_site7380] | 9.69
18 | TTTTTTTCATAAATTAGGTAATGTCGCAGGGGGACA [TGCATGCA_negctrl_site556] | 9.42
19 | TAAAAAATAAAATACACACACATATATATATATATA [CACACA_site1323] | 10.1
20 | GAGGGAAAAAATAATCGTACAAAGAAAAAAAAAAAT [XGTACX_site7361] | 9.75
21 | TATATTCTTTTTTTAACACACAAAAAAAATAAAATA [CACACA_site1898] | 9.42
22 | AAAAAAATTAAAGATTGTACTTGATTTTTCATTTTA [XGTACX_site6685] | 9.5
23 | GACTGAACAACATAATGTACATTTATAAGTATATAT [XGTACX_site3813] | 9.74

Row | Sequence | gcPBM binding intensity (ln)
24 | AGTAGTATGGAGAAAAGTACATAGTATCTGATAACC [XGTACX_site2040] | 9.81
25 | CTTTAATATATTTAAGTGCAAAACTAATATGTAAAG | 9.49
26 | TATATATTATATATATGTACTTATTCATATATATAA [XGTACX_site3860] | 9.49
27 | AAAGAAAAAGAAAAAGAAAAAATAAAATAAAATAAA [CACACA_negctrl_site872] | 9.38
28 | TATTTAAAAACAAAAAGTACTAATATATATTTATAC [XGTACX_site1422] | 9.56
29 | TTGAATTATAAGAATAAACACACAAGCTTAAAAAAA [CACACA_site8318] | 9.71
30 | GAATTATAAATTATAGTGCATAAAATTATGGCATAA [GTGCAC_site9938] | 9.67
31 | TCAAAACATTATTCCATACACACCATACTTTTTAAT [CACACA_site2770] | 9.82
32 | TATTTAAATTTGTATAATGGACGAATTATATAGAAA [GTGCAC_negctrl_site650] | 9.45
33 | AATAACCACGGACACACACACATATATATATATATA [CACACA_site5873] | 10.9
34 | TTAAGAAACAAAGAAAGTACACAACATAATATAGAA [XGTACX_site477] | 9.92
35 | TTAATAATAAAAAGGAGTACACTAATATACTATAAA [XGTACX_site2346] | 9.64
36 | ATATAATATATATATAAACACACAAAAAAAATTATA [CACACA_site8434] | 9.97
37 | AATAAAATCATCTATACACACAAAAAAAATAAGAAA [CACACA_site2101] | 9.9
38 | CTGTAAAAAATATAAACACACATAGAAATATATAAA [CACACA_site340] | 9.91
39 | CCTCATAAGTTCTTATGTACGTATTGTTCACCTTTA [XGTACX_site6640] | 9.72
40 | TACAACCTTATAATTAGTACTTAGTTATGCTGTAAA [XGTACX_site6052] | 9.5
41 | TTTAATTTTTTTTATAGTACATAAAAAATAAAAAAA [XGTACX_site5631] | 9.07
42 | TTTATTTGTGCATATACACACTTAAATATGTTTATT [CACACA_site7772] | 9.95
43 | ATTATAATACTTTGTATGCACTAATCAATTATTAAA | 9.5
44 | TTTGTTATGGTTTTCTCACACATATATATATATATA [CACACA_site4617] | 9.83
45 | ACATAAAATTGGAGCAAACACACAAGGTTGAAATTA [CACACA_site505] | 10.1
46 | CCGATATAATGGAAAACACACAAAAGATATTTATAT [CACACA_site7293] | 9.72

Row | Sequence | gcPBM binding intensity (ln)
47 | AGATCATAATATTATACACACATTATATATATGTAA [CACACA_site8419] | 9.75
48 | TGGAAAGTTATTAACACACACATATAAATATTTATA [CACACA_site6173] | 10.1
49 | GGAATAACCAGACACACACACACATATATATATATA [CACACA_site3541] | 10.9
50 | TATATATAATATTATACACACATATCTGCATAATAT [CACACA_site4202] | 9.89
51 | AAAAACCATTCGCACACACACATAATCTATAATATA [CACACA_site6782] | 11.1
52 | AAGTACCATATAGGCACACATATATATATATATATA [CACACA_site3282] | 9.64
53 | AAAAACGAAAAAAATACACACCTGAAAAGATATGTA [CACACA_site4644] | 9.9
54 | GTATATATGTATATGTGTACATATATTTTATAATAT [XGTACX_site5703] | 9.73
55 | GTTGTTATATAAAGGAGTACATAATAACACAAATAT [XGTACX_site615] | 9.76
56 | TTTTCTTGTAGTATAACAAAATATAGTAATATATAT [GTGCAC_negctrl_site609] | 9.39
57 | AAAAAAAAAAAAAAAACACACATTTATAGTATATAT [CACACA_site1194] | 9.74
58 | GATTTATTTCATATCACACATTTTGGCTATTTTGTG [CACACA_site5793] | 9.73
59 | ATGAAATATTTATTTGTGCACTTAATTTGTTGGAAA | 9.41
60 | AATCCTTCATATGTAGTGCATATTAACAAAATAAAA [GTGCAC_site9500] | 9.37
61 | CCATTTGGTATTATATGTACATATAATTTTTTTTTT [XGTACX_site157] | 9.65
62 | TCCAATTCTTTATTTTGTACACATTATGTGCATATG [XGTACX_site6290] | 10.1
63 | TTATAAGATTTATGTACACACATATACACAGCTCTA [CACACA_site6481] | 9.95
64 | AGTATTATATATATATGTACATAATATACATATATA [XGTACX_site8514] | 9.6
65 | TCCTAATGCTACCACACACACAAAAACAAATAATAA [CACACA_site2610] | 10.2
66 | GCTATAAATACAGACGCACACATATACATACAGATA [CACACA_site5778] | 10.3
67 | TGTTATTAGAAAAATGCACACCAAAAAAAAAAAAAA [CACACA_site8802] | 9.58
68 | ATATACATAATATATAATATAAATATATATATGGAA [CACACA_negctrl_site906] | 9.7
69 | TGTCATTCCTCTTATTGTACAAAAATATTATAATAT [XGTACX_site1134] | 9.51

Row | Sequence | gcPBM binding intensity (ln)
70 | TATTAAAATATTTATACACACATAATTTTGATAAAT [CACACA_site4486] | 9.56
71 | GTTATACGCATCAACACACACATACAACGTGGTGTA [CACACA_site1188] | 9.91
72 | ATGGAACTTAAAAATTGTACACATAAAATGGAGAAG [XGTACX_site1823] | 9.76
73 | ACATATTTATATTCTACACACTTATACTATAATACA [CACACA_site7204] | 9.84
74 | TAATTAATTTACATTTTAATTTTATACAAAATTTAT [CACACA_negctrl_site830] | 9.52
75 | TAGGAGAAAAAAAAAAGTACCCACAACTATTATACT [XGTACX_site8195] | 9.59
76 | TGGTAATATCGATTCACACATATCAAAATAAAAAAA [CACACA_site4196] | 9.54
77 | AACATATTAATGTACACACACCCACGCACAAACAAA [CACACA_site7320] | 10.4
78 | TATATATATTAACTTGTGCGCAAAAAGATATAATTT [GTGCAC_site9672] | 9.77
79 | AATATTTTGATGTGTACACATTAATACAGTTTTACA [CACACA_site5711] | 9.73
80 | TAGGATATTGAATAATGTACTTTATATATAATATAA [XGTACX_site7828] | 9.49
81 | ATATGTATGTATGTCTCAAAATTTCATATTATATTA [CACACA_negctrl_site784] | 9.59
82 | AAGAAATAAAAAAAACGTACATATATACATACATAC [XGTACX_site3980] | 9.82
83 | AATATATATATTAAATGTACATTACATAATTATATA [XGTACX_site3450] | 9.59
84 | TAAATGAAAATATGTACACACTTGAAAACTTTTATG [CACACA_site7388] | 9.75
85 | TGCAACAAAATAAACACACACACACTAGCACAAAAA [CACACA_site5805] | 10.5
86 | TTTTTTTTTTTAGACACATGCATTTTTATAATTTTC [TGCATGCA_site843] | 9.72
87 | TGTATAACCTGTGTTACACACATTAAAATTTATATA [CACACA_site4449] | 9.7
88 | ATAAATGTGTTTATTTAACACACAAAAGAAAAAATA [CACACA_site8589] | 10.1
89 | GATATTTTTATTTGTTGTACTTAAGATAATAAATGA [XGTACX_site2891] | 9.35
